{"source": "the supplement of paper PMC8728848", "binders": {"B1": {"name": "Cohesin-mDCIR (Macaca mulatta) (protein)", "chain": "GLDDLDAVRIKVDTVNAKPGDTVRIPVRFSGIPSKGIANCDFVYSYDPNVLEIIEIEPGDIIVDPNPDKSFDTAVYPDRKIIVFLFAEDSGTGAYAITKDGVFATIVAKVKEGAPNGLSVIKFVEVGGFANNDLVEQKTQFFDGGVNVGDTTEPATPTTPVTTPTTTDDLDAASFQKYSQLLEKMTTKDLVHTTLECVKKNMTTEETAWSCCPKNWKPFSSNCYFISTESASWQKSEKDCARMEAHLLVINTREEQDFIFQNLQEESAYFVGLSDPEGQRHWQWVDRTPYNESSTFWHPHEPSDPDERCVVLNFRKTPKRWGWNDVHCIVHQRSVCEMMKIHLHHHHHH"}}, "test_in_all_cases": "glycan array binding signal (z-score within array); higher = stronger binding", "settings_in_all_cases": "glycan notation: IUPAC condensed, linker removed", "key": {"[1]": {"target": "Fuc(a1-2)Gal(b1-4)GlcNAc(b1-3)Gal(b1-4)GlcNAc(b1-3)Gal(b1-4)GlcNAc", "procedure,_shortened": "(§1)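 The binding signal is a Z-score computed within each array and averaged over linkers. Arrays of the same protein sequence at different concentrations or buffers were also averaged together. Data originate from 3228 arrays in the Consortium for Functional Glycomics database, kept only where the protein sequence was available.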"}, "[2]": {"target": "Fuc(a1-2)Gal(b1-4)GlcNAc(b1-3)GalNAc", "procedure,_shortened": "as §1"}, "[3]": {"target": "Fuc(a1-2)Gal(b1-4)GlcNAc(b1-3)[Fuc(a1-2)Gal(b1-4)GlcNAc(b1-6)]GalNAc", "procedure,_shortened": "as §1"}, "[4]": {"target": "Fuc(a1-2)Gal(b1-4)GlcNAc(b1-3)[Fuc(a1-3)[Gal(b1-4)]GlcNAc(b1-6)]Gal(b1-4)Glc", "procedure,_shortened": "as §1"}, "[5]": {"target": "Fuc(a1-2)Gal(b1-4)GlcNAc(b1-6)GalNAc", "procedure,_shortened": "as §1"}, "[6]": {"target": "Fuc(a1-2)Gal(b1-4)GlcNAc6S", "procedure,_shortened": "as §1"}, "[7]": {"target": "Fuc(a1-2)Gal(b1-4)[Fuc(a1-3)]GlcNAc", "procedure,_shortened": "as §1"}, "[8]": {"target": "Fuc(a1-2)Gal(b1-4)[Fuc(a1-3)]GlcNAc(b1-2)Man(a1-3)[Fuc(a1-2)Gal(b1-4)[Fuc(a1-3)]GlcNAc(b1-2)Man(a1-6)]Man(b1-4)GlcNAc(b1-4)[Fuc(a1-6)]GlcNAc", "procedure,_shortened": "as §1"}, "[9]": {"target": "Fuc(a1-2)Gal(b1-4)[Fuc(a1-3)]GlcNAc(b1-2)[Fuc(a1-2)Gal(b1-4)[Fuc(a1-3)]GlcNAc(b1-4)]Man(a1-3)[Fuc(a1-2)Gal(b1-4)[Fuc(a1-3)]GlcNAc(b1-2)Man(a1-6)]Man(b1-4)GlcNAc(b1-4)GlcNAc", "procedure,_shortened": "as §1"}, "[10]": {"target": "Fuc(a1-2)Gal(b1-4)[Fuc(a1-3)]GlcNAc(b1-3)Gal(b1-4)[Fuc(a1-3)]GlcNAc", "procedure,_shortened": "as §1"}, "[11]": {"target": "Fuc(a1-2)Gal(b1-4)[Fuc(a1-3)]GlcNAc(b1-3)Gal(b1-4)[Fuc(a1-3)]GlcNAc(b1-3)Gal(b1-4)[Fuc(a1-3)]GlcNAc", "procedure,_shortened": "as §1"}, "[12]": {"target": "Fuc(a1-2)Gal(b1-4)[Fuc(a1-3)]GlcNAc(b1-3)GalNAc", "procedure,_shortened": "as §1"}, "[13]": {"target": "Fuc(a1-2)Gal(b1-4)[Fuc(a1-3)]GlcNAc(b1-3)[Neu5Ac(a2-6)Gal(b1-4)GlcNAc(b1-6)]Gal(b1-4)Glc", "procedure,_shortened": "as §1"}, "[14]": {"target": "Fuc(a1-2)Gal3S(b1-4)GlcNAc", "procedure,_shortened": "as §1"}, "[15]": {"target": "Fuc(a1-2)Gal6S(b1-3)GlcNAc", "procedure,_shortened": "as §1"}, "[16]": {"target": "Fuc(a1-2)Gal6S(b1-3)GlcNAc6S", "procedure,_shortened": "as §1"}, "Fuc(a1-2)Gal6S(b1-4)Glc": {"target": "Fuc(a1-2)Gal6S(b1-4)Glc", "procedure,_shortened": "as §1"}, "[17]": {"target": "Fuc(a1-2)Gal6S(b1-4)Glc6S", "procedure,_shortened": "as §1"}, "Fuc(a1-2)[Gal(a1-3)]Gal": {"target": "Fuc(a1-2)[Gal(a1-3)]Gal", "procedure,_shortened": "as §1"}, "[18]": {"target": "Fuc(a1-2)[Gal(a1-3)]Gal(b1-3)GalNAc", "procedure,_shortened": "as §1"}, "[19]": {"target": "Fuc(a1-2)[Gal(a1-3)]Gal(b1-3)GalNAc(b1-3)Gal(a1-4)Gal(b1-4)Glc", "procedure,_shortened": "as §1"}, "[20]": {"target": "Fuc(a1-2)[Gal(a1-3)]Gal(b1-3)GlcNAc", "procedure,_shortened": "as §1"}, "[21]": {"target": "Fuc(a1-2)[Gal(a1-3)]Gal(b1-3)GlcNAc(b1-2)Man(a1-3)[Fuc(a1-2)[Gal(a1-3)]Gal(b1-3)GlcNAc(b1-2)Man(a1-6)]Man(b1-4)GlcNAc(b1-4)GlcNAc", "procedure,_shortened": "as §1"}, "[22]": {"target": "Fuc(a1-2)[Gal(a1-3)]Gal(b1-3)GlcNAc(b1-2)Man(a1-3)[Fuc(a1-2)[Gal(a1-3)]Gal(b1-3)GlcNAc(b1-2)Man(a1-6)]Man(b1-4)GlcNAc(b1-4)[Fuc(a1-6)]GlcNAc", "procedure,_shortened": "as §1"}, "[23]": {"target": "Fuc(a1-2)[Gal(a1-3)]Gal(b1-3)GlcNAc(b1-3)GalNAc", "procedure,_shortened": "as §1"}, "[24]": {"target": "Fuc(a1-2)[Gal(a1-3)]Gal(b1-3)GlcNAc(b1-6)GalNAc", "procedure,_shortened": "as §1"}, "[25]": {"target": "Fuc(a1-2)[Gal(a1-3)]Gal(b1-4)Glc", "procedure,_shortened": "as §1"}, "[26]": {"target": "Fuc(a1-2)[Gal(a1-3)]Gal(b1-4)GlcNAc", "procedure,_shortened": "as §1"}, "[27]": {"target": "Fuc(a1-2)[Gal(a1-3)]Gal(b1-4)GlcNAc(b1-2)Man", "procedure,_shortened": "as §1"}, "[28]": {"target": "Fuc(a1-2)[Gal(a1-3)]Gal(b1-4)GlcNAc(b1-2)Man(a1-3)[Fuc(a1-2)[Gal(a1-3)]Gal(b1-4)GlcNAc(b1-2)Man(a1-6)]Man(b1-4)GlcNAc(b1-4)GlcNAc", "procedure,_shortened": "as §1"}}, "note": "The list shows a part of the results."}
{"binder": "B1", "values": [{"measurement": "glycan array binding signal (z-score)", "setting": "[1]", "value": -0.381}, {"measurement": "glycan array binding signal (z-score)", "setting": "[2]", "value": -0.325}, {"measurement": "glycan array binding signal (z-score)", "setting": "[3]", "value": 0.129}, {"measurement": "glycan array binding signal (z-score)", "setting": "[4]", "value": -0.368}, {"measurement": "glycan array binding signal (z-score)", "setting": "[5]", "value": 0.7}, {"measurement": "glycan array binding signal (z-score)", "setting": "[6]", "value": -0.269}, {"measurement": "glycan array binding signal (z-score)", "setting": "[7]", "value": 0.229}, {"measurement": "glycan array binding signal (z-score)", "setting": "[8]", "value": -0.015}, {"measurement": "glycan array binding signal (z-score)", "setting": "[9]", "value": -0.234}, {"measurement": "glycan array binding signal (z-score)", "setting": "[10]", "value": -0.412}, {"measurement": "glycan array binding signal (z-score)", "setting": "[11]", "value": -0.414}, {"measurement": "glycan array binding signal (z-score)", "setting": "[12]", "value": -0.393}, {"measurement": "glycan array binding signal (z-score)", "setting": "[13]", "value": -0.446}, {"measurement": "glycan array binding signal (z-score)", "setting": "[14]", "value": -0.161}, {"measurement": "glycan array binding signal (z-score)", "setting": "[15]", "value": 0.324}, {"measurement": "glycan array binding signal (z-score)", "setting": "[16]", "value": 0.098}, {"measurement": "glycan array binding signal (z-score)", "setting": "Fuc(a1-2)Gal6S(b1-4)Glc", "value": -0.432}, {"measurement": "glycan array binding signal (z-score)", "setting": "[17]", "value": -0.051}, {"measurement": "glycan array binding signal (z-score)", "setting": "Fuc(a1-2)[Gal(a1-3)]Gal", "value": -0.365}, {"measurement": "glycan array binding signal (z-score)", "setting": "[18]", "value": -0.348}, {"measurement": "glycan array binding signal (z-score)", "setting": "[19]", "value": -0.472}, {"measurement": "glycan array binding signal (z-score)", "setting": "[20]", "value": 3.96}, {"measurement": "glycan array binding signal (z-score)", "setting": "[21]", "value": -0.37}, {"measurement": "glycan array binding signal (z-score)", "setting": "[22]", "value": -0.435}, {"measurement": "glycan array binding signal (z-score)", "setting": "[23]", "value": -0.241}, {"measurement": "glycan array binding signal (z-score)", "setting": "[24]", "value": 0.926}, {"measurement": "glycan array binding signal (z-score)", "setting": "[25]", "value": 0.341}, {"measurement": "glycan array binding signal (z-score)", "setting": "[26]", "value": -0.349}, {"measurement": "glycan array binding signal (z-score)", "setting": "[27]", "value": -0.085}, {"measurement": "glycan array binding signal (z-score)", "setting": "[28]", "value": -0.297}]}
